Measured values as given in the supplement of paper PMC8728848.
The other results are listed elsewhere or left out.

Experiments:
Assay in all cases: glycan array binding signal (z-score within array); higher = stronger binding
Details in all cases: glycan notation: IUPAC condensed, linker removed
Fuc(a1-2)Gal6S(b1-4)Glc = molecular target: Fuc(a1-2)Gal6S(b1-4)Glc
Summary of the method: (§1)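 Negative Z-scores can be read as non-binding. The Z-score is calculated within each array and then averaged across arrays of one protein sequence at different concentrations or buffers and across linkers. Arrays, 3228 in all, were curated from the Consortium for Functional Glycomics database and kept only where the protein sequence was available.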

[1] = molecular target: Fuc(a1-2)Gal6S(b1-4)Glc6S
Summary of the method: as §1

[2] = molecular target: Fuc(a1-2)Gal6S(b1-4)GlcNAc
Summary of the method: as §1

Fuc(a1-2)[Gal(a1-3)]Gal = molecular target: Fuc(a1-2)[Gal(a1-3)]Gal
Summary of the method: as §1

[3] = molecular target: Fuc(a1-2)[Gal(a1-3)]Gal(b1-3)GalNAc
Summary of the method: as §1

[4] = molecular target: Fuc(a1-2)[Gal(a1-3)]Gal(b1-3)GlcNAc
Summary of the method: as §1

[5] = molecular target: Fuc(a1-2)[Gal(a1-3)]Gal(b1-3)GlcNAc(b1-2)Man(a1-3)[Fuc(a1-2)[Gal(a1-3)]Gal(b1-3)GlcNAc(b1-2)Man(a1-6)]Man(b1-4)GlcNAc(b1-4)GlcNAc
Summary of the method: as §1

[6] = molecular target: Fuc(a1-2)[Gal(a1-3)]Gal(b1-3)GlcNAc(b1-2)Man(a1-3)[Fuc(a1-2)[Gal(a1-3)]Gal(b1-3)GlcNAc(b1-2)Man(a1-6)]Man(b1-4)GlcNAc(b1-4)[Fuc(a1-6)]GlcNAc
Summary of the method: as §1

[7] = molecular target: Fuc(a1-2)[Gal(a1-3)]Gal(b1-3)GlcNAc(b1-3)GalNAc
Summary of the method: as §1

[8] = molecular target: Fuc(a1-2)[Gal(a1-3)]Gal(b1-4)Glc
Summary of the method: as §1

[9] = molecular target: Fuc(a1-2)[Gal(a1-3)]Gal(b1-4)GlcNAc
Summary of the method: as §1

[10] = molecular target: Fuc(a1-2)[Gal(a1-3)]Gal(b1-4)GlcNAc(b1-2)Man(a1-3)[Fuc(a1-2)[Gal(a1-3)]Gal(b1-4)GlcNAc(b1-2)Man(a1-6)]Man(b1-4)GlcNAc(b1-4)GlcNAc
Summary of the method: as §1

[11] = molecular target: Fuc(a1-2)[Gal(a1-3)]Gal(b1-4)GlcNAc(b1-2)Man(a1-3)[Fuc(a1-2)[Gal(a1-3)]Gal(b1-4)GlcNAc(b1-2)Man(a1-6)]Man(b1-4)GlcNAc(b1-4)[Fuc(a1-6)]GlcNAc
Summary of the method: as §1

[12] = molecular target: Fuc(a1-2)[Gal(a1-3)]Gal(b1-4)GlcNAc(b1-3)GalNAc
Summary of the method: as §1

[13] = molecular target: Fuc(a1-2)[Gal(a1-3)]Gal(b1-4)GlcNAc(b1-6)GalNAc
Summary of the method: as §1

[14] = molecular target: Fuc(a1-2)[Gal(a1-3)]Gal(b1-4)[Fuc(a1-3)]Glc
Summary of the method: as §1

[15] = molecular target: Fuc(a1-2)[Gal(a1-3)]Gal(b1-4)[Fuc(a1-3)]GlcNAc
Summary of the method: as §1

[16] = molecular target: Fuc(a1-2)[Gal(a1-3)]Gal(b1-4)[Fuc(a1-3)]GlcNAc(b1-3)GalNAc
Summary of the method: as §1

[17] = molecular target: Fuc(a1-2)[Gal(a1-4)]Gal(b1-4)GlcNAc
Summary of the method: as §1

[18] = molecular target: Fuc(a1-2)[GalNAc(a1-3)]Gal
Summary of the method: as §1

[19] = molecular target: Fuc(a1-2)[GalNAc(a1-3)]Gal(b1-3)GalNAc(a1-3)[Fuc(a1-2)]Gal(b1-4)GlcNAc
Summary of the method: as §1

[20] = molecular target: Fuc(a1-2)[GalNAc(a1-3)]Gal(b1-3)GlcNAc
Summary of the method: as §1

[21] = molecular target: Fuc(a1-2)[GalNAc(a1-3)]Gal(b1-3)GlcNAc(b1-2)Man(a1-3)[Fuc(a1-2)[GalNAc(a1-3)]Gal(b1-3)GlcNAc(b1-2)Man(a1-6)]Man(b1-4)GlcNAc(b1-4)GlcNAc
Summary of the method: as §1

[22] = molecular target: Fuc(a1-2)[GalNAc(a1-3)]Gal(b1-3)GlcNAc(b1-2)Man(a1-3)[Fuc(a1-2)[GalNAc(a1-3)]Gal(b1-3)GlcNAc(b1-2)Man(a1-6)]Man(b1-4)GlcNAc(b1-4)[Fuc(a1-6)]GlcNAc
Summary of the method: as §1

[23] = molecular target: Fuc(a1-2)[GalNAc(a1-3)]Gal(b1-3)GlcNAc(b1-3)GalNAc
Summary of the method: as §1

[24] = molecular target: Fuc(a1-2)[GalNAc(a1-3)]Gal(b1-3)GlcNAc(b1-6)GalNAc
Summary of the method: as §1

[25] = molecular target: Fuc(a1-2)[GalNAc(a1-3)]Gal(b1-4)Glc
Summary of the method: as §1

[26] = molecular target: Fuc(a1-2)[GalNAc(a1-3)]Gal(b1-4)GlcNAc
Summary of the method: as §1

[27] = molecular target: Fuc(a1-2)[GalNAc(a1-3)]Gal(b1-4)GlcNAc(b1-2)Man(a1-3)[Fuc(a1-2)[GalNAc(a1-3)]Gal(b1-4)GlcNAc(b1-2)Man(a1-6)]Man(b1-4)GlcNAc(b1-4)GlcNAc
Summary of the method: as §1

[28] = molecular target: Fuc(a1-2)[GalNAc(a1-3)]Gal(b1-4)GlcNAc(b1-2)Man(a1-3)[Fuc(a1-2)[GalNAc(a1-3)]Gal(b1-4)GlcNAc(b1-2)Man(a1-6)]Man(b1-4)GlcNAc(b1-4)[Fuc(a1-6)]GlcNAc
Summary of the method: as §1

[29] = molecular target: Fuc(a1-2)[GalNAc(a1-3)]Gal(b1-4)GlcNAc(b1-3)Gal(b1-4)GlcNAc
Summary of the method: as §1

[30] = molecular target: Fuc(a1-2)[GalNAc(a1-3)]Gal(b1-4)GlcNAc(b1-3)Gal(b1-4)GlcNAc(b1-3)Gal(b1-4)GlcNAc
Summary of the method: as §1

[31] = molecular target: Fuc(a1-2)[GalNAc(a1-3)]Gal(b1-4)GlcNAc(b1-3)GalNAc
Summary of the method: as §1

[32] = molecular target: Fuc(a1-2)[GalNAc(a1-3)]Gal(b1-4)[Fuc(a1-3)]GlcNAc
Summary of the method: as §1

[33] = molecular target: Fuc(a1-2)[GalNAc(a1-3)]Gal(b1-4)[Fuc(a1-3)]GlcNAc(b1-3)GalNAc
Summary of the method: as §1

[34] = molecular target: Fuc(a1-2)[GalNAc(a1-4)]Gal(b1-4)GlcNAc
Summary of the method: as §1

[35] = molecular target: Fuc(a1-2)[GalNAc(b1-3)]Gal
Summary of the method: as §1

Fuc(a1-3)GlcNAc = molecular target: Fuc(a1-3)GlcNAc
Summary of the method: as §1

[36] = molecular target: Fuc(a1-3)[Gal(b1-4)]Glc6S
Summary of the method: as §1

[37] = molecular target: Fuc(a1-3)[Gal(b1-4)]GlcNAc
Summary of the method: as §1

[38] = molecular target: Fuc(a1-3)[Gal(b1-4)]GlcNAc(b1-2)Man
Summary of the method: as §1

[39] = molecular target: Fuc(a1-3)[Gal(b1-4)]GlcNAc(b1-2)Man(a1-3)[Fuc(a1-3)[Gal(b1-4)]GlcNAc(b1-2)Man(a1-6)]Man(b1-4)GlcNAc(b1-4)GlcNAc
Summary of the method: as §1

[40] = molecular target: Fuc(a1-3)[Gal(b1-4)]GlcNAc(b1-2)Man(a1-3)[Fuc(a1-3)[Gal(b1-4)]GlcNAc(b1-2)Man(a1-6)]Man(b1-4)GlcNAc(b1-4)[Fuc(a1-6)]GlcNAc
Summary of the method: as §1

[41] = molecular target: Fuc(a1-3)[Gal(b1-4)]GlcNAc(b1-3)Gal(b1-3)[Fuc(a1-4)]GlcNAc
Summary of the method: as §1

[42] = molecular target: Fuc(a1-3)[Gal(b1-4)]GlcNAc(b1-3)GalNAc
Summary of the method: as §1

B1: SpnanA (Streptococcus pneumoniae), P62575 (protein)
chain: MVIEKEDVETNASNGQRVDLSSELDKLKKLENATVHMEFKPDAKAPAFYNLFSVSSATKKDEYFTMAVYNNTATLEGRGSDGKQFYNNYNDAPLKVKPGQWNSVTFTVEKPTAELPKGRVRLYVNGVLSRTSLRSGNFIKDMPDVTHVQIGATKRANNTVWGSNLQIRNLTVYNRALTPEEVQKRS
- glycan array binding signal (z-score) (Fuc(a1-2)Gal6S(b1-4)Glc): -0.212
- glycan array binding signal (z-score) [1]: -0.121
- glycan array binding signal (z-score) [2]: -0.317
- glycan array binding signal (z-score) (Fuc(a1-2)[Gal(a1-3)]Gal): -0.222
- glycan array binding signal (z-score) [3]: -0.322
- glycan array binding signal (z-score) [4]: -0.262
- glycan array binding signal (z-score) [5]: -0.216
- glycan array binding signal (z-score) [6]: -0.328
- glycan array binding signal (z-score) [7]: -0.21
- glycan array binding signal (z-score) [8]: -0.273
- glycan array binding signal (z-score) [9]: -0.187
- glycan array binding signal (z-score) [10]: -0.198
- glycan array binding signal (z-score) [11]: -0.314
- glycan array binding signal (z-score) [12]: -0.355
- glycan array binding signal (z-score) [13]: -0.044
- glycan array binding signal (z-score) [14]: -0.264
- glycan array binding signal (z-score) [15]: -0.275
- glycan array binding signal (z-score) [16]: -0.047
- glycan array binding signal (z-score) [17]: -0.249
- glycan array binding signal (z-score) [18]: -0.21
- glycan array binding signal (z-score) [19]: -0.12
- glycan array binding signal (z-score) [20]: -0.265
- glycan array binding signal (z-score) [21]: -0.292
- glycan array binding signal (z-score) [22]: -0.289
- glycan array binding signal (z-score) [23]: -0.044
- glycan array binding signal (z-score) [24]: -0.265
- glycan array binding signal (z-score) [25]: -0.263
- glycan array binding signal (z-score) [26]: -0.134
- glycan array binding signal (z-score) [27]: -0.211
- glycan array binding signal (z-score) [28]: -0.31
- glycan array binding signal (z-score) [29]: -0.247
- glycan array binding signal (z-score) [30]: -0.165
- glycan array binding signal (z-score) [31]: -0.259
- glycan array binding signal (z-score) [32]: 0.018
- glycan array binding signal (z-score) [33]: 0.218
- glycan array binding signal (z-score) [34]: -0.162
- glycan array binding signal (z-score) [35]: -0.274
- glycan array binding signal (z-score) (Fuc(a1-3)GlcNAc): -0.176
- glycan array binding signal (z-score) [36]: -0.264
- glycan array binding signal (z-score) [37]: -0.28
- glycan array binding signal (z-score) [38]: -0.244
- glycan array binding signal (z-score) [39]: -0.169
- glycan array binding signal (z-score) [40]: -0.083
- glycan array binding signal (z-score) [41]: -0.263
- glycan array binding signal (z-score) [42]: -0.153
